Reference: the supplement of paper PMC12217912
The list shows a part of the results. The full chains were built here from the parent and the listed change. Values near 0.05 are background.

B1: TEV protease; numbered along this chain (parent)
chain: MGESLFKGPRDYNPISSSICHLTNESDGHTTSLYGIGFGPFIITNKHLFRRNNGTLVVQSLHGVFKVKDTTTLQQHLVDGRDMIIIRMPKDFPPFPQKLKFREPQREERICLVTTNFQTKSMSSMVSDTSCTFPSGDGIFWKHWIQTKDGQCGSPLVSTRDGFIVGIHSASNFTNTNNYFTSVPKNFMELLTNQEAQQWVSGWRLNADSVLWGGHKVFMVKPEEPFQPVKEATQL

Variants of: B1
Experiment: raw area under fraction-flipped curve 0-4 h after induction (AUC4h, not background-subtracted), DNA-recorder readout of cleavage of the substrate (dimensionless); higher = more cleavage of the substrate by the protease variant
Conditions: temperature: 34 °C; time window: 0-4 h after rhamnose induction
Procedure: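 In vivo DNA recorder in E. coli TOP10(DE3) ΔrhaA at 34 °C. Each TEVp single-site mutant (parent TEVp 0) is paired with a single-site variant of the 7-mer TEVs (canonical ENLYFQ|S). The substrate sits between flexible linkers in a Bxb1-sfGFP-TEVs-SsrA fusion, so cleavage stabilises Bxb1 and speeds flipping of a recombination array, read by NGS. The value is the raw area under the fraction-flipped curve over 0-4 h after rhamnose induction (AUC4h), with ≥20 reads per time point. It is not background-subtracted; inactive controls average about 0.047.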
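Also: Bxb1 expression induced with 0.2% (w/v) L-rhamnose at OD600 near 0.5, cultures sampled hourly, flipped fraction per protease–substrate barcode pair counted by paired-end Illumina sequencing.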

Row | Variant | area with substrate EALYFQS | area with substrate ECLYFQS | area with substrate EDLYFQS | area with substrate EELYFQS | area with substrate EFLYFQS | area with substrate EILYFQS | area with substrate EKLYFQS | area with substrate ELLYFQS | area with substrate EMLYFQS | area with substrate EPLYFQS | area with substrate ERLYFQS | area with substrate ETLYFQS | area with substrate EVLYFQS | area with substrate EWLYFQS | area with substrate EYLYFQS | area with substrate EGLYFQS | area with substrate EQLYFQS | area with substrate ESLYFQS | area with substrate EHLYFQS
1 | MGESLFKGPRDYNPISSSICHLTNESDGHTTSLYGIGFGPFIITNKHLFRRNNGTLVVQSLHGVFKVKDTTTLQQHLVDGRDMIIIRMPKDFPPFPQKLKFREPQREERICLVTTNFQTKVMSSMVSDTSCTFPSGDGIFWKHWIQTKDGQCGSPLVSTRDGFIVGIHSASNFTNTNNYFTSVPKNFMELLTNQEAQQWVSGWRLNADSVLWGGHKVFMVKPEEPFQPVKEATQL [S121V] | 0.132 | 0.124 | 0.108 | 0.108 | 0.125 | 0.111 | 0.1 | 0.0942 | 0.0975 | 0.0958 | 0.118 | 0.118 | 0.103 | 0.0895 | 0.0988 |  |  |  | 
2 | MGESLFKGPRDYNPISSSICHLTNESDGHTTSLYGIGFGPFIITNKHLFRRNNGTLVVQSLHGVFKVKDTTTLQQHLVDGRDMIIIRMPKDFPPFPQKLKFREPQREERICLVTTNFQTKDMSSMVSDTSCTFPSGDGIFWKHWIQTKDGQCGSPLVSTRDGFIVGIHSASNFTNTNNYFTSVPKNFMELLTNQEAQQWVSGWRLNADSVLWGGHKVFMVKPEEPFQPVKEATQL [S121D] | 0.111 | 0.0904 | 0.101 | 0.11 | 0.0637 | 0.102 | 0.0989 | 0.0886 |  |  | 0.0978 |  | 0.0806 |  | 0.0765 | 0.0999 | 0.148 | 0.099 | 
3 | MGESLFKGPRDYNPISSSICHLTNESDGHTTSLYGIGFGPFIITNKHLFRRNNGTLVVQSLHGVFKVKDTTTLQQHLVDGRDMIIIRMPKDFPPFPQKLKFREPQREERICLVVTNFQTKSMSSMVSDTSCTFPSGDGIFWKHWIQTKDGQCGSPLVSTRDGFIVGIHSASNFTNTNNYFTSVPKNFMELLTNQEAQQWVSGWRLNADSVLWGGHKVFMVKPEEPFQPVKEATQL [T114V] | 0.118 | 0.0856 | 0.17 | 0.125 | 0.0812 | 0.0798 |  | 0.0936 | 0.0766 | 0.117 | 0.0991 |  | 0.134 | 0.0971 | 0.114 | 0.0853 |  | 0.0867 | 0.0781
4 | MGESLFKGPRDYNPISSSICHLTNESDGHTTSLYGIGFGPFIITNKHLFRRNNGTLVVQSLHGVFKVKDTTTLQQHLVDGRDMIIIRMPKDFPPFPQKLKFREPQREERICLVPTNFQTKSMSSMVSDTSCTFPSGDGIFWKHWIQTKDGQCGSPLVSTRDGFIVGIHSASNFTNTNNYFTSVPKNFMELLTNQEAQQWVSGWRLNADSVLWGGHKVFMVKPEEPFQPVKEATQL [T114P] | 0.0765 | 0.0736 | 0.0746 | 0.094 |  |  |  | 0.0697 |  | 0.088 |  | 0.086 |  | 0.0841 |  |  | 0.0931 | 0.0662 | 
